Laboratory results from a collection of fitness landscapes (doi:10.1016/j.celrep.2020.107928).
In all, about 81,000 sequences were measured (“one-hybrid fitness for binding parS DNA”: median about -0.17, highest 2% from about 0.51 on). Some of the results follow.

B1: Caulobacter ParB omega fusion; a variant is named by its letters at X, in order, B8GW30 (parent)
chain: MESVVVGEPGMSEGRRGLGRGLSALLGEVDAAPAQAPGEQLGGSREAPIEILQRNPDQPRRTFREEDLEDLSNSIREKGVLQPILVRPSPDTAGEYQIVAGERAWRAAQRAGLKTVPIMVRELDDLAVLEIGIIENVQRADLNVLEEALSYKVLMEKFERTQENIAQTIGKSXSHVANXMRLLXLPDEVQSYLVSGELTAXHARAIAAAADPVALAKQIIEGGLSVRETEALARKAPNLSAGKSKGGRPPRVKDTDTQALESDLSSVLGLDVSIDHRGSTGTLTITYATLEQLDDLCNRLTRGI

Variants of: B1
Assay: one-hybrid fitness for binding parS DNA (scaled: cognate 1, non-cognate 0); higher = stronger binding
Conditions: with parS DNA site
Method in brief: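 The reporter was HIS3, with the binding site 19 bp from the promoter, in E. coli USO used for bacterial one-hybrid selection of Caulobacter ParB libraries with four specificity codons randomised. Growth was on M9 lacking histidine, with 0.1 mM IPTG and 5 mM 3-AT, for 48 hours at 37°C. Illumina sequencing covered plasmids before and after selection; three replicate libraries were pooled and variants with under 10 reads dropped. A fitness score is the log change in variant-to-wild-type read ratio, rescaled to the cognate and non-cognate references.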

one-hybrid fitness for binding parS DNA, 0.257:
RLPY

one-hybrid fitness for binding parS DNA, 0.401:
RCWN

one-hybrid fitness for binding parS DNA, 0.394:
RYKN

one-hybrid fitness for binding parS DNA, 0.232:
RSRH

one-hybrid fitness for binding parS DNA, 0.849:
RGSS

one-hybrid fitness for binding parS DNA, 0.201:
RIWK

one-hybrid fitness for binding parS DNA, ≤ 0.2:
DRRM
DVAL
LSVP
QPGN
RFQF
QPGI
RGHP
CHNI
CTRA
GKKS
CFNC
HSTE
PLMG
SMKC
RWKE
AQDA
TIPT
NYRR
IIIR
PLAK
PVFM
LVSR
HMDL
RLGP
HLFC
PGHS
GYCL
AQRA
QMQH
NGVK
NHNF
YLNK
MKVM
IGSF
YQQC
KFMP
GVQP
WLCW
QLSV
AEAT
VYYS
GKYM
SILM
DIKR
QDKH
WFAG
NLKS
QSQS
RYIR
LATP
VFEI
GVKT
SCLR
QMML
GTQN
PFMG
NTQG
FHSC
PRNG
SILN
WDNM
AETK
KSMC
MGVE
HLEV
YIPA
FVFG
FTSY
GCPI
PRNV
AHES
VPCG
THDQ
YYPM
YKNT
VAYR
IDTR
RSVK
GTQM
PYFA
HHTS
LLEC
EYKA
PCAY
TEKA
NCIW
YSFG
VFCS
TNFD
GLEK
LMKT
CHYT
GIQI
WHNR
HHVS
PQDN
SNIG
CFLV
FFLR
THCS
ARIM
YPAT
SVES
TENV
KVNP
YTAT
KPII
DATF
CNAR
LPCD
HMLR
RLIQ
HVYR
DCPT
ECCR
RRYK
FRCS
MSSL
SLIC
TSEI
TWMT
LSMT
GWHC
NKIM
PSYT
YKIR
VSGG
IQAG
QTVA
HYNV
AVGV
DGDC
NKLE
WPLT
SLCR
IQRC
SHKR
QHVG
QLAY
QMLV
YIYL
QRER
VIYR
DDED
VTFW
HSMC
IWGG
DSFP
WIIG
DLTM
IRTM
AKES
NSRM
MNQC
CDCT
YEET
QHTV
NTGI
KQGG
MTLA
LRCY
DDLL
SLAL
YFQG
ANYG
TTKG
YVRE
WPVR
QRQN
VLCS
HSPK
KAFS
GVSS
LHFT
DALI
TMKI
YHGG
PQYV
LSWG
NCMR
VDMG
MKNF
QGDC
RELT
TEKH
APAY
RKCP
QKHE
ESAC
KVKM
CRFY
DPIE
WRAC
RRYH
HAAS
GERI
QPVP
CISV
AIYP
DPAG
ILDE
QRTL
KLGC
DISN
SPTT
VGAG
LRPS
PYSI
NERT
MAML
YSMY
NITF
RPSV
TRFA
FWSG
VKSG
WMSC
LWYG
HWWF
CPAN
MIFS
RMWE
VDRW
QRNI
TKRC
VICG
AKSC
AEQF
FKER
SRGA
ACQS
LRSM
TMRP
ADWT
TGVR
NTYS
VLQS
FAAT
WYHT
EPGS
RVMR
KQTA
HNHC
PLRE
YRRT
SVHS
DGHN
KRRY
RTPR
PSSG
ETGC
CTTN
PSRH
HLYY
QLTY
PLTD
SPWT
RRYL
NNNS
PRQR
HILL
HTWK
KKMR
SVNC
EGSN
NNYM
FRIW
NRVC
ALAT
QQWY
SWYQ
GPSY
SCKG
GHPV
GVWR
NNDW
EYQL
RNCM
QISL
ILDG
QGSL
QNTE
ISVL
FACC
SMHL
AYSC
MMAS
VSRF
MASG
VLTI
PTKS
WFQV
QMPI

one-hybrid fitness for binding parS DNA, 0.746:
RNTT

one-hybrid fitness for binding parS DNA, 0.327:
RMIN

one-hybrid fitness for binding parS DNA, 0.604:
RKKT

one-hybrid fitness for binding parS DNA, 0.213:
RVYP

one-hybrid fitness for binding parS DNA, 0.261:
RMTW

one-hybrid fitness for binding parS DNA, 0.236:
SGMQ

one-hybrid fitness for binding parS DNA, 0.952:
RQLC
